Measurements published in PubChem BioAssay AID588342 (National Center for Advancing Translational Sciences (NCATS), 2011).
Among all 360,000 compounds or so, about 25,000 (6.9%) were called active. The inconclusive results got no clear call from the source; some entries with a clear call stand among them for comparison. The call rests on the fitted dose curve; in most records, active means well fitted inhibition curve with a large enough effect; inconclusive means small, poorly fitted or top-dose-only effect; inactive means flat fitted curve, though single readings scatter. Where the call is inconclusive, the potency comes from a doubtful curve fit.
Further: nearly all actives have a fitted effect of over 55% in size.
Potency means the concentration at half of the fitted maximal effect; tags describe the fitted curve by direction and shape.

The compounds below were run against Luciferin 4-monooxygenase (Photinus pyralis) (UniProt P08659) (assay: qHTS profiling assay for firefly luciferase inhibitor/activator using purifed enzyme and Km concentrations of substrates (counterscreen for miR-21 project)). Conditions: purified FLuc, luminescence inhibition; series mostly up to 57.5 µM.
UniProt P08659, sequence (P08659 whole entry, looked up): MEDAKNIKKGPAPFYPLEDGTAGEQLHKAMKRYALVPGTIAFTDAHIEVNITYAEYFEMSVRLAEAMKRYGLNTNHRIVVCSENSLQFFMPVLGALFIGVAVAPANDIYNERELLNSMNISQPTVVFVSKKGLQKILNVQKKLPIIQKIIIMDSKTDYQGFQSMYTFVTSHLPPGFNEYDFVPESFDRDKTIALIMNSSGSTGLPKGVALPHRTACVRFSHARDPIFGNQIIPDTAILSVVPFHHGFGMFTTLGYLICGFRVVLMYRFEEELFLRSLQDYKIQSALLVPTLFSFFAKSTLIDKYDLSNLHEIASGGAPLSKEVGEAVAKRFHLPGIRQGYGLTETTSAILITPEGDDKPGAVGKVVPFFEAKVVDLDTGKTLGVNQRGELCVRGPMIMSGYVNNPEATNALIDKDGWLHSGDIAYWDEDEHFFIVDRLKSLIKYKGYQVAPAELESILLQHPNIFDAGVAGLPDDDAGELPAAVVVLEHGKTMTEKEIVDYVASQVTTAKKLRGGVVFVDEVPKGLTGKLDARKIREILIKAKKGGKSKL
In short: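 Biochemical qHTS of compounds, final roughly 60 µM downward over six points, against 10 nM purified firefly luciferase using Km concentrations of substrates (10 uM D-luciferin, 10 uM ATP) in Tris acetate pH 7.5 buffer; luminescence output.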
With O=C(NCCc1ccc(Cl)cc1)C1CCC(CNc2c(N3CCCCC3)c(=O)c2=O)CC1 (stereo not drawn) the Potency was “inactive”.
In the case of COc1ccc(C2=NN(C(=O)c3ccco3)C(c3cc4ccccc4nc3Cl)C2)cc1 (stereo not drawn), the Potency is reported as inconclusive: 26.9 µM [inhibitor, single point].
With Cc1ccc(-c2nc(SCC(=O)Nc3cc(S(=O)(=O)N4CCCCC4)ccc3Cl)n[nH]2)cc1 the Potency was active: 15.1 µM.
With Cc1csc(=O)n1CCC(=O)OCc1nnc(-c2ccccc2)o1 the Potency was “inactive”.
For O=C(Nc1nc2cc3c(cc2s1)OCCO3)C1=COCCO1, the Potency was active: 0.0536 µM.
O=C(O)c1cc(-c2ccc(Cl)cc2)n(-c2ccccc2)n1 was tested, and the Potency was inconclusive: 26.9 µM [inhibitor, single point].
In the case of CC(C)c1ccc(NC(=O)c2cc(S(=O)(=O)N(C)C3CCCCC3)ccc2F)cc1, the Potency is reported as “inactive”.
For CCCCn1cnc2cc(NCc3ccc(OCC)cc3)ccc21, the Potency was inconclusive: 37.9 µM [inhibitor, partial curve, poor fit].
With N/C(=N\OC(=O)N1c2ccccc2Sc2ccccc21)c1ccccc1 the Potency was inconclusive: 19 µM [inhibitor, partial curve, poor fit].
For COc1cccc(C(=O)N/N=c2\sc3ccccc3n2C)c1, the Potency was inconclusive: 26.9 µM [inhibitor, single point].
In the case of O=C(N/N=C/C=C/c1ccccc1[N+](=O)[O-])c1cccs1, the Potency is reported as inconclusive: 9.53 µM [inhibitor, partial curve, poor fit].
With COc1cccc(Oc2ccc(C(F)(F)F)cc2NC(=O)CCc2nc3ccccc3c(=O)[nH]2)c1 the Potency was inconclusive: 37.9 µM [inhibitor, partial curve, poor fit].
With O=C(Oc1ccc2c3c(c(=O)oc2c1)CCCC3)c1ccco1 the Potency was active: 16.9 µM.
COc1ccc(OC)c(CNc2ccc3c(c2)CCC3)c1 was tested, and the Potency was inconclusive: 37.9 µM [inhibitor, partial curve, poor fit].
In the case of CCCOc1ccc(/C=N\NC(=O)CCc2n[nH]c(=O)[nH]c2=O)cc1OC, the Potency is reported as “inactive”.
With COc1ccccc1Nc1n[nH]c(=S)s1 the Potency was inconclusive: 26.9 µM [inhibitor, partial curve, poor fit].
For C=CCNC(=O)c1cc(-c2ccc(Br)cc2)on1, the Potency was inconclusive: 1.9 µM [inhibitor, full curve].
With CC(C)Cc1csc(NC(=O)c2ccc(Cl)cc2)c1C(=O)O the Potency was inconclusive: 37.9 µM [inhibitor, single point].
COC(CNC(=O)c1ccc2c(c1)ncn2-c1ccc(C)cc1C)OC was tested, and the Potency was “inactive”.
With COc1ccc(C(=O)N/N=C/c2sc(N3CCOCC3)nc2-c2ccccc2)cc1OC the Potency was inconclusive: 15.1 µM [inhibitor, partial curve].
Cc1c(Cl)cccc1NS(=O)(=O)c1ccc(-c2cnc(C3CC3)o2)cc1 was tested, and the Potency was inconclusive: 37.9 µM [inhibitor, single point].
In the case of O=C(CCSc1nc2ccccc2o1)N1CCOCC1, the Potency is reported as inconclusive: 30.1 µM [inhibitor, single point].
Cc1ccc(NC(=O)C(C)Sc2nnc(C3CC3)n2C2CC2)cc1S(=O)(=O)N1CCOCC1 (stereo not drawn) was tested, and the Potency was “inactive”.
With COc1cc(-c2[nH]ncc2CN2CCSCC2)cc(OC)c1OC the Potency was “inactive”.
In the case of COc1ccc(C(=O)Nc2cc(Cl)ccc2OC(=O)c2ccc(OC)cc2)cc1, the Potency is reported as inconclusive: 19 µM [inhibitor, single point].
With Cc1nc(NC(C)C)c2cnn(CCc3ccccc3)c2n1 the Potency was inconclusive: 37.9 µM [inhibitor, partial curve, poor fit].
CN1C(=O)/C(=C2\SC(N3CCCCCC3)=NC2=O)c2ccccc21 was tested, and the Potency was active: 2.69 µM.
For COc1cccc(NC(=O)/C=C/c2ccco2)c1, the Potency was active: 10.7 µM.
For Cc1ccc2c(=O)cc(C(=O)Nc3ccc(S(=O)(=O)Nc4onc(C)c4C)cc3)oc2c1C, the Potency was inconclusive: 13.5 µM [inhibitor, partial curve, poor fit].
COc1ccc(N2CCN(c3ccc(NC(=O)/C=C\C(=O)O)cc3)CC2)cc1 was tested, and the Potency was inconclusive: 23.9 µM [inhibitor, single point].
With O=C(CSc1oc(-c2ccccc2)nc1S(=O)(=O)c1ccc(Cl)cc1)c1ccccc1 the Potency was “inactive”.
O=C1c2c([N+](=O)[O-])cc([N+](=O)[O-])cc2S(=O)N1Cc1ccccc1 (stereo not drawn) was tested, and the Potency was inconclusive: 30.1 µM [inhibitor, partial curve, poor fit].
For CCc1ccc2nc(N3CCN(C)CC3)c(C#N)cc2c1, the Potency was inconclusive: 23.9 µM [inhibitor, single point].
In the case of O=C(NCc1ccccn1)c1ccc(NS(=O)(=O)c2ccccc2)cc1, the Potency is reported as “inactive”.
O=C(CC1C(=O)N(c2ccc(F)cc2)C(=O)N1Cc1ccc2c(c1)OCO2)Nc1ccc(Cl)cc1 (stereo not drawn) was tested, and the Potency was inconclusive: 37.9 µM [inhibitor, partial curve, poor fit].
For CCc1nnc(NC(=O)CSc2nc(C)cc(C)c2C#N)s1, the Potency was inconclusive: 0.849 µM [inhibitor, partial curve, poor fit].
Cc1cc(SCCOc2ccc(Br)cc2)nc(N)n1 was tested, and the Potency was inconclusive: 26.9 µM [inhibitor, single point].
NC(=O)c1nsc(C(=O)N(c2cccc(F)c2)C(C(=O)NCC2CCCO2)c2c[nH]c3ccccc23)c1N (stereo not drawn) was tested, and the Potency was “inactive”.
For COc1cc(/C=N/NC(=O)c2nnn(-c3nonc3N)c2C(C)C)ccc1O, the Potency was inconclusive: 26.9 µM [inhibitor, single point].
With CCOc1ccc(/C=C2\C(=O)c3ccccc3OC2c2ccccc2)cc1 (stereo not drawn) the Potency was inconclusive: 16.9 µM [inhibitor, partial curve].
With Cc1ccccc1OCCNc1cc(N2CCN(CCO)CC2)ccc1[N+](=O)[O-] the Potency was inconclusive: 26.9 µM [inhibitor, single point].
In the case of O=c1c2c(nc3nc(NCc4cccc(Cl)c4)[nH]n13)CCC2, the Potency is reported as inconclusive: 13.5 µM [inhibitor, partial curve].
In the case of COc1ccc(C(=O)Cc2nnc(C)s2)c(OC)c1, the Potency is reported as inconclusive: 30.1 µM [inhibitor, partial curve, poor fit].
Cc1ccc(CNC(=O)Nc2cc(C(=O)NCc3ccc(C(C)C)cc3)ccc2N2CCCC2)cc1 was tested, and the Potency was inconclusive: 8.49 µM [inhibitor, partial curve, poor fit].
CC(C)c1ccc(OCc2nnc(SCC(=O)N3CCCCC3)o2)cc1 was tested, and the Potency was inconclusive: 37.9 µM [inhibitor, single point].
In the case of COCCCNC(=O)C(=O)Nc1cc2c3c(c1)CCN3C(=O)CC2, the Potency is reported as “inactive”.
For Cc1cc(C)cc(-n2c(C)cc(C(=O)C(=O)Nc3ccccc3F)c2C)c1, the Potency was inconclusive: 10.7 µM [inhibitor, partial curve].
With Fc1ccc(COc2ccc(-c3nnco3)cc2)c(Cl)c1 the Potency was inconclusive: 16.9 µM [inhibitor, partial curve].
With Cc1cc(=O)oc2cc(OCC3CC(c4ccccc4Cl)=NO3)ccc12 (stereo not drawn) the Potency was inconclusive: 19 µM [inhibitor, partial curve].
With CCCOc1ccc(-c2cccc(NS(=O)(=O)c3ccccc3)c2)nn1 the Potency was inconclusive: 30.1 µM [inhibitor, single point].
In the case of NC(=O)c1ccc(N=Nc2c(O)c3ccccc3[nH]c2=O)cc1, the Potency is reported as inconclusive: 2.69 µM [inhibitor, full curve].
With CCCn1cnc2cc(NC(=O)c3ccco3)ccc21 the Potency was inconclusive: 2.69 µM [inhibitor, partial curve].
For Cn1nc(C(=O)Nc2ccc3c(c2)OCCO3)c2ccccc2c1=O, the Potency was inconclusive: 17.8 µM [inhibitor, partial curve, poor fit].
In the case of O=C(NCC(O)c1ccccc1)c1ccccc1 (stereo not drawn), the Potency is reported as active: 21.3 µM.
For COc1ccc(-c2csc(-c3cc4ccccc4oc3=N)n2)cc1, the Potency was active: 5.36 µM.
COc1ccc(OCc2nnc3n2N=C(c2ccccc2)C(CC(=O)O)S3)cc1 (stereo not drawn) was tested, and the Potency was inconclusive: 9.53 µM [inhibitor, partial curve].
For Cc1ccc2c(c1)N(C(=O)CCC(=O)NCCCN1CCC(Cc3ccccc3)CC1)CCO2, the Potency was “inactive”.
In the case of O=C(CSc1nc2ccccc2n1Cc1ccc(Cl)cc1)N/N=C/c1ccc(C(=O)O)cc1, the Potency is reported as inconclusive: 23.9 µM [inhibitor, partial curve, poor fit].
In the case of Cc1cc(C(=O)COC(=O)c2ccc[nH]c2=O)c(C)n1-c1ccc(Br)cc1, the Potency is reported as inconclusive: 9.53 µM [inhibitor, partial curve].
C/C(=C\C(=O)c1ccc(Br)cc1)NCc1ccc(C)cc1 was tested, and the Potency was inconclusive: 33.8 µM [inhibitor, partial curve, poor fit].
In the case of Cc1nn(C)c(C)c1CNC(=O)Nc1ccc(Cl)cc1, the Potency is reported as inconclusive: 23.9 µM [inhibitor, partial curve].
In the case of CC(C)Nc1nc2ccccc2c(=O)[nH]1, the Potency is reported as “inactive”.
For Cc1c(C(=O)NCCN(C)C)oc2ccc(S(=O)(=O)N3CCC4(CC3)OCCO4)cc12, the Potency was “inactive”.
With Cc1ccccc1CNC(=O)c1ccc2nc(SCc3ccc(F)cc3)n(C)c2c1 the Potency was “inactive”.
With O=C(Nc1ccncc1)Nc1cccc(Cl)c1 the Potency was inconclusive: 26.9 µM [inhibitor, partial curve].
For O=C(CSC1=NC(=O)C(Cc2ccccc2)C(=O)N1)Nc1ncc(Br)cc1Br (stereo not drawn), the Potency was inconclusive: 26.9 µM [inhibitor, single point].
For CN(C)S(=O)(=O)c1ccc(C(=O)OCC(=O)Nc2sc3c(c2C#N)CCCCC3)cc1, the Potency was inconclusive: 37.9 µM [inhibitor, partial curve, poor fit].
With Cc1ccc(CSc2nc3nc(C)cc(C)n3n2)cc1 the Potency was inconclusive: 4.78 µM [inhibitor, partial curve, poor fit].
